# Results: the supplement of paper PMC4466236
# Over roughly 33,000 sequences, “E-score (dimensionless, -0.5 to 0.5)” has its median near -0.058; the highest 2% begin near 0.35. The list shows a part of the results.
# Test system: MvaT
# Test: PBM 8-mer E-score (mean of HK and ME arrays) (E-score (dimensionless, -0.5 to 0.5)); higher = stronger relative binding preference; most listed sequences are background and not binding sites
# Summary of the method: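 Full-length P. aeruginosa MvaT carrying an N-terminal glutathione S-transferase tag was tested by protein binding microarray following a previously described protocol. Two universal double-stranded 60-mer arrays, ME and HK, were used, each with a constant 25-mer primer region and a variable 35-mer region covering all 8-mers. The rank-based E-score is the mean of the two arrays, parsed with a custom script. Its range runs from -0.5 to 0.5 for each 8-mer.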
row,Sequence,PBM 8-mer E-score
1,ATAAAGCG,0.182
2,AGTTCGCG,0.0814
3,GGGCCGAA,-0.247
4,AAACTTGT,0.206
5,CGATCTCA,-0.227
6,ATCCGCAT,-0.0959
7,CTAGAACC,-0.193
8,AACGCCCG,-0.0548
9,CATGAAGC,-0.125
10,ACGTTCTG,-0.0125
11,ACATTGCA,-0.0605
12,CCCCGAGG,-0.277
13,CGGTTAGA,-0.0621
14,GCTCGAAC,-0.198
15,AGTCAAGG,-0.0826
16,ACACTTAC,0.205
17,TATGTTGA,0.212
18,CCAGGACA,-0.112
19,GACGTCCA,-0.247
20,GATGGTCC,-0.117
21,ACGCAATA,0.27
22,GGCTCCAC,-0.329
23,GCGAGGAA,-0.000183
24,TCACGCGA,-0.0922
25,AACGGGAG,-0.215

row,Sequence,PBM 8-mer E-score
1,GCACGCAC,-0.179
2,ACACATAA,0.273
3,CCCCTTAA,0.0542
4,TCTCGGCA,0.0682
5,ACACGTAG,-0.0126
6,CCTCGAGA,-0.0968
7,ACCTCACT,-0.189
8,GCGGGACC,-0.163
9,GAGCTTTA,-0.147
10,TAGACGGA,-0.214
11,AAGCTGCT,-0.156
12,CGTAGCAA,-0.103
13,GAGGCTTA,-0.208
14,CGCAGTCC,-0.172
15,CTTCCAAC,-0.0953
16,GTGGCTTA,-0.105
17,CGGTAGGC,-0.203
18,TTTTAAAA,0.409
19,AGGGGAGA,-0.145
20,AGTGTACA,0.19
21,GCATGAAC,-0.198
22,GCGGAATA,0.205
23,CGGCGTTC,-0.211
24,CCTGGTAA,-0.0325
25,CCTAGTAG,0.0151

row,Sequence,PBM 8-mer E-score
1,ATTGATAA,0.322
2,CCCGACGA,-0.167
3,CACCATGC,-0.17
4,GAGTTTTA,0.181
5,AGCACAAA,0.0677
6,CAAGACGG,-0.127
7,ACCGAATA,0.227
8,GTCCCGGA,-0.272
9,ACCATCGT,-0.0813
10,CAGATGGG,-0.216
11,CAGTACCC,-0.0965
12,ACCCACTG,-0.0978
13,ACCTAAAA,0.0584
14,GGCGTTCA,-0.149
15,ACTCTTAT,0.208
16,GCGGTAGA,-0.049
17,TATACAGA,0.296
18,CGCATACA,0.179
19,GACCGTTA,0.12
20,TCAGGACA,-0.158
21,CGCGTCTC,-0.196
22,CATCGCAC,0.0662
23,CCCCCCTC,-0.342
24,TATAGTAA,0.342
25,TAGTACGA,0.188

row,Sequence,PBM 8-mer E-score
1,ACCAATTA,0.25
2,GACAACAC,0.0942
3,CGAGTCGC,-0.2
4,AAGCGCAT,0.0214
5,ACGGAGGC,-0.252
6,GGAGTTGA,-0.0727
7,GATCACGC,-0.153
8,TCCCGCAA,0.0151
9,CGTGACGA,-0.32
10,ACACTACA,0.119
11,ACTCTCCG,-0.142
12,TATTACCA,0.263
13,CTCCTAGC,-0.143
14,ACGAATAG,-0.029
15,CCAGTAGG,-0.202
16,AGTGCTGC,-0.195
17,CAGTTATC,0.131
18,AAAATCTA,0.0355
19,AAACTCTA,0.135
20,CAGGTTAA,0.0719
21,CTATGAGA,-0.0448
22,ACGAGAGA,-0.0673
23,ATGATGGC,-0.151
24,AGCTACAA,-0.035
25,GATGCTAC,-0.201

row,Sequence,PBM 8-mer E-score
1,CCCGTGCC,-0.187
2,AGCGGCCA,-0.134
3,CGATCCCC,-0.314
4,AAAATAGA,0.173
5,ATTCAGTC,0.0824
6,AAATCACA,0.131
7,TCTCTGAA,-0.0253
8,GCTCTACC,-0.19
9,AAAAAGAA,0.317
10,AGTATCCC,-0.128
11,AACATTGT,0.172
12,AATGAAAT,0.23
13,AACTCGGT,-0.0107
14,ACATGATG,0.0401
15,AATTACGG,0.301
16,ATAGAATC,0.0155
17,GTTTTTAA,0.23
18,ACCCCTCG,-0.181
19,GCTCCACC,-0.234
20,AGCTCAAC,-0.0559
21,AGTGACTG,-0.0444
22,ACCGTCGG,-0.206
23,ATCGCCGG,-0.169
24,AACCCATA,0.0666
25,ACCATGTG,-0.192

row,Sequence,PBM 8-mer E-score
1,TCCCATCA,-0.0548
2,AAAGCGTC,-0.00535
3,ATAATTAG,0.429
4,GGCATGTA,0.0178
5,TATGGTAA,0.222
6,GCGTGGAA,-0.139
7,GTACAAAC,0.175
8,CATAACCA,0.0892
9,ATTAGTGA,0.225
10,GTGAGTCA,-0.199
11,AACGAGTC,-0.0958
12,AGCATTGG,-0.268
13,AGCCTCGC,-0.215
14,GTAAGAAA,0.2
15,CATCCACC,-0.167
16,CCAGACCG,-0.161
17,AAAGTACT,0.25
18,CCCACAGC,-0.26
19,AGCCCGGC,-0.312
20,AGGAGAGA,-0.105
21,CAAAAGTG,0.0592
22,CGCTGTCC,-0.207
23,GAGACTCC,-0.164
24,AAAGAGTG,0.00642
25,CACTGCGC,-0.173

row,Sequence,PBM 8-mer E-score
1,AGTAAAAG,0.22
2,GTCCACTA,0.0598
3,CGAAAGTC,-0.0957
4,GTCAAGTA,0.0656
5,AGTCGGTA,-0.0292
6,ATTGCGAA,0.148
7,AACCCAGG,0.00834
8,GGTGGTAA,-0.0265
9,TGGAAGAA,-0.0513
10,ATCATGCC,-0.105
11,ACTCTACC,0.0756
12,ACAGCTAA,0.053
13,ATTAGGTG,0.227
14,GAACAAGC,-0.0473
15,ATCATTAG,0.00779
16,GAAAAGCC,-0.0242
17,ATCATACA,0.183
18,ACCTGGTA,-0.102
19,GCGGCCCC,-0.285
20,TGTTTAAA,0.387
21,TATGGGCA,0.0621
22,CGCGTGTC,-0.108
